Source: PubChem BioAssay AID1159614 (National Center for Advancing Translational Sciences (NCATS), 2016)
About 65 (0.1%) of roughly 45,000 compounds were called active. Calls follow the shape of the dose curve; as a rule, active = well fitted activation curve with a large enough effect; inconclusive = small, poorly fitted or top-dose-only effect; inactive = no such curve, though single readings can be large or run the other way. The list shows a part of the results.

Biological target: Galactocerebrosidase (Homo sapiens) (UniProt P54803)
UniProt P54803, sequence (P54803 whole entry, looked up): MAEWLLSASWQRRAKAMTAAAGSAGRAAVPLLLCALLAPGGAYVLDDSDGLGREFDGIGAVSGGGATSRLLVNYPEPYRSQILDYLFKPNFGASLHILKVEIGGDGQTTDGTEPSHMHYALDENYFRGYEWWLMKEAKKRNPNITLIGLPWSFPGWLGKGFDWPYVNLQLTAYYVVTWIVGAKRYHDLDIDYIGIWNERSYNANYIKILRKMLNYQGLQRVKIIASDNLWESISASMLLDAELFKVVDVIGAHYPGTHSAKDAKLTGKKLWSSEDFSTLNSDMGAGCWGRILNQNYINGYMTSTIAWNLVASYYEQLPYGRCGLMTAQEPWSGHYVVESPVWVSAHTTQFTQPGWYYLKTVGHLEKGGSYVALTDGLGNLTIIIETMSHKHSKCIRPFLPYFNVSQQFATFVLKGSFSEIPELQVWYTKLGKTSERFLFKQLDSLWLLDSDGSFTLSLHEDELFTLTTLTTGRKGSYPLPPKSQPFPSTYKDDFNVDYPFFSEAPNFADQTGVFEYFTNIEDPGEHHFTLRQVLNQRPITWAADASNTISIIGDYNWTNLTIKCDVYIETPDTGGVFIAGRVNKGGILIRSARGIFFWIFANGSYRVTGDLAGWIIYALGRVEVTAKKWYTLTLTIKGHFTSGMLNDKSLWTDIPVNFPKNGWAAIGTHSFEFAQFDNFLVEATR
Assay: A Novel Cell-Based Assay to Identify Small Molecules for B -Galactocerebrosidase; also: 0% is about no effect; nearly all actives have a fitted effect of over 65% in size
Conditions: 145M-Twi-hGALC-G270D cells (Twitcher mouse brain line with human GALC G270D), HMU-beta-Gal fluorescence, 48 h; series mostly up to 57.5 µM; activation: at the top concentration
Procedure, shortened: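 Fluorescence readout: HMU-β-gal cleavage by mutant GALC (0.1 mM final, citrate/phosphate pH 5.2 with 1 mg/mL taurocholate), stopped with carbonate/bicarbonate plus Triton X-100. Cells: murine Twitcher 145M-Twi expressing human G270D GALC; qHTS for activators.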

activation, inactive:
CCN(CC)C(=O)CSc1cn(CC(=O)N2CCCCCC2)c2ccccc12 -7.16%
CCOC(=O)Cn1nc(C)c(NC(=O)COc2ccc(C)c(C)c2)c1C -14%
CCn1c2ccccc2c2nnc(N3CCN(c4ccc(OC)cc4)CC3)nc21 -7.1%
COc1ccc(-c2cc(C(F)(F)F)nc(SCCC(=O)Nc3ccc(O)cc3)n2)cc1 5.29%
Cc1ccc(C)c(S(=O)(=O)Nc2ccc3c(c2)CCCN3C(=O)c2cccs2)c1 -3.74%
Cc1nnc(N2CCC(C(=O)N3CCCCC3)CC2)c2nn(-c3ccccc3)c(C)c12 3.55%
COc1ccc(CNS(=O)(=O)c2ccc3c(c2)NC(=O)C(C)C(=O)N3)cc1 (stereo unspecified) 14%
COc1ccc(C)cc1NS(=O)(=O)c1ccc(-c2cnc(C3CC3)o2)cc1 -3.3%
Cc1ccc(C)c(Nc2ncnc3c2cnn3-c2ccc(F)cc2)c1 -12.4%
Fc1ccc([C@@H]2Nc3ccccc3[C@@H]3C=CC[C@@H]32)cc1 -1.12%
COc1ccc(/C=C/c2nc(C#N)c(N3CCCCCC3)o2)cc1OC 2.39%
O=C(Cn1cc(S(=O)(=O)c2ccc(Cl)cc2)c(=O)c2ccccc21)Nc1ccc2c(c1)OCO2 -2.28%
Cc1ccc(C)c(NC(=O)CSc2ncc3c(n2)-c2ccccc2N(Cc2ccccc2C)S3(=O)=O)c1 -5.18%
CCCc1c(C(=O)OCC)nnc2c(-c3ccccc3)c(C)nn12 -12.5%
CCCN(C(=O)c1cc2c(=O)n(CC)c3ccccc3c2s1)c1ccccc1F -3.58%
COc1ccc(CCN2C(=O)N(c3ccc(F)cc3)C(=O)C2CC(=O)Nc2ccccc2)cc1OC (stereo unspecified) -12.4%
CCc1ccc(Nc2ncnc3sc4c(c23)CCCC4)cc1 -27.6%
COc1ccc(CNc2n[nH]c(-c3ccco3)n2)cc1OC -26.8%
COc1cc(NC(=O)Cn2c(=O)n(Cc3ccccc3Cl)c(=O)c3cc(OC)c(OC)cc32)cc(OC)c1 -24.1%
CCc1ccc(NC(=O)c2cc(S(=O)(=O)N3CCCCC3)c[nH]2)cc1 13.3%
O=C(c1ccc(Nc2nc3ccccc3n3nnnc23)cc1)N1CCN(c2ccc(F)cc2)CC1 -11.1%
COc1ccc(C2c3c(n(C)c4ccccc34)C(=O)N2CC(=O)Nc2ccccc2Cl)cc1 (stereo unspecified) 0.644%
COc1cc(NC(=O)c2cc3nc(-c4ccc(C)cc4)cc(C(F)(F)F)n3n2)cc(OC)c1OC -19.5%
CCn1c2c(c(=O)n3ncc(C(=O)Nc4ccc(OC(F)(F)F)cc4)c13)CN(Cc1ccc(OC)cc1)CC2 -4.69%
O=C(Nc1cc(-c2nc3cc(Cl)ccc3o2)ccc1Cl)c1cccc2ccccc12 -12%
COc1ccc(CCNC(=O)c2c[nH]n3c(=O)c(Cc4ccccc4Cl)c(C)nc23)cc1OC -13.3%
O=S(=O)(Nc1ccc(F)cc1F)c1ccc(Br)s1 -9.73%
CC(=O)c1cccc(NC(=O)Cn2c(=O)oc3cc(S(=O)(=O)NCc4ccccc4)ccc32)c1 -24.8%
COc1ccc(OCc2ccc(-c3nc(C#N)c(N4CCC(C(N)=O)CC4)o3)o2)cc1 -13%
Cc1ccc(CNC(=O)c2nnn(Cc3ccc(F)cc3)c2N)cc1 -17%
COCCNC(=O)CCSc1nc(-c2ccc3c(c2)OCO3)cc(C(F)(F)F)n1 -10.1%
CCc1nnc2c(NCc3cccc(OC)c3)nc3ccccc3n12 -5.27%
COc1ccccc1N1CCN(c2cc(C)nc3c(-c4ccc(Cl)cc4)c(C)nn23)CC1 2.23%
COCCOC(=O)C1=C(C)N=C2SCCC(=O)N2C1c1ccc(OCc2ccccc2)c(OC)c1 (stereo unspecified) -10.4%
COCCCNc1nc2c(c(=O)n(C)c(=O)n2C)n1Cc1ccccc1 -18.5%
COc1cccc(-c2[nH]c3c(c2-c2c(-n4cccc4)n(C)c(=O)[nH]c2=O)c(=O)[nH]c(=O)n3C)c1 -16.4%
CN(C)c1ccc(CNC(=O)CCn2c(=O)c3cccn3c3ccc(F)cc32)cc1 -14.5%
Cc1ccc(NS(=O)(=O)c2ccc3c(c2)NC(=O)CCS3)cc1F -40.8%
Cn1c(=O)c2c(ncn2C)n(C)c1=O -11.5%
Cc1cn(C)c(CC(=O)N2CCN(c3ccc(F)cc3)CC2)c1C(=O)O -5.79%
O=C(NCc1ccc2c(c1)CCN2C(=O)c1ccccc1)c1ccc(Br)o1 -2.35%
CCOc1ccccc1C(=O)Nc1nnc(COC)s1 -14%
CCN(CC)S(=O)(=O)c1ccc2c(c1)c(=O)c(C(=O)NCc1ccccc1OC)cn2C -18.2%
Cc1ccc(C(=O)N2CCc3cc(CNC(=O)c4ccnn4C)ccc32)cc1 -11.8%
CCOc1ccc(C(=O)N2CCC(c3ccncc3)CC2)cc1 -5.21%
CCN(C(=O)Cn1cc(C(=O)c2ccc(F)cc2)c(=O)c2ccc(C)nc21)c1cccc(C)c1 -14.8%
COc1cc(NC(=O)Cn2c(=O)nc(-c3ccccc3F)c3cc(Cl)ccc32)cc(OC)c1 -12.8%
CCOC(=O)c1cc(OC(=O)c2cccc(Cl)c2)n(-c2ccccc2)n1 -18.7%
Cc1ccc(C)c(N2CCN(C(=O)Cn3c(C)c4cnn(-c5ccccc5)c(=O)c4c3C)CC2)c1 -1.75%
CC1CCCCN1c1nc(-c2ccc(C(C)(C)C)cc2)nc2ccccc12 (stereo unspecified) -12.6%
COC(=O)c1ccccc1NC(=O)Cn1nc(C(F)(F)F)c2c1CCCC2 -2.91%
Cc1ccc2c(c1)CC(C)N2S(=O)(=O)c1nnc(NC(=O)CC(C)C)s1 (stereo unspecified) -1.54%
Cc1cc(C)c2c(CC(=O)Nc3c(C(=O)c4ccc(F)cc4)oc4ccccc34)coc2c1 -18.8%
CC(C)c1ccc2occ(CC(=O)Nc3cccc(C(F)(F)F)c3)c2c1 -24.1%
COc1ccc(OC)c(NC(=O)CCc2c(C)nc3c(c(C)nn3C(C)(C)C)c2C)c1 -11.7%
CC(C)c1nc2ccc(C(=O)NCCCN3CCN(c4ccc(F)cc4)CC3)cc2o1 -5.95%
CCC1CN(C(=O)N2CCC(C(=O)NCc3ccco3)CC2)c2cc(C)ccc2O1 (stereo unspecified) -9.64%
COc1cccc(-n2c(-c3ccc(C)cc3)cc3c2CC(C)(C)CC3=O)c1 -24.1%
Cc1cc(=O)n(Cc2ccccc2Cl)c2c1c(C)nn2-c1ccccc1 -6.4%
Cc1cc(NC(=O)CSc2nc3c([nH]c4ccccc43)c(=O)n2-c2ccc(Cl)cc2)no1 -24.3%
O=C(NCC1CCN(Cc2ccccc2Cl)CC1)c1cc2ccc3cccnc3c2[nH]1 -8.91%
Cc1c(NC(=O)c2ccc(Cl)cc2)cc(C(C)C)c(O)c1S(=O)(=O)c1ccccc1 -6.55%
COc1ccccc1C(=O)Nc1ccc(OCc2cc(=O)n3cccc(C)c3n2)cc1 -11.7%
CCc1ccc(NC(=O)c2ccc3c(O)c(S(=O)(=O)c4ccccc4)c(=O)[nH]c3c2)cc1 -21.5%
CCOc1ccc(NC(=O)c2oc(=O)c3ccccc3c2-c2ccc(C)cc2)cc1 -12.3%
CCN1CCN(C(=O)c2ccc3c(c2)N(Cc2ccc(F)cc2)C(=O)c2ccccc2S3(=O)=O)CC1 -6.35%
Cc1cccc(OCc2nnc(-c3ccccc3)o2)c1 -18.5%
CCn1c2c(c(=O)n3ncc(C(=O)Nc4ccc(F)cc4Cl)c13)CN(Cc1ccc(OC)cc1)CC2 -18.4%
COc1ccc(CC(=O)Nc2nnc3n2CCS3)cc1 -20.4%
O=C(CC1Oc2ccccc2NC1=O)NCc1ccc(F)cc1 (stereo unspecified) -6.75%
Cc1ccc(CSc2nc3ccsc3c(=O)n2CCC(C)C)cc1 -2.24%
O=c1oc2ccc(F)cc2cc1-c1nc(-c2cccs2)no1 -1.08%
CCOc1ccc(-n2c(Cc3ccccc3)nnc2SCc2nc(-c3cccs3)no2)cc1 -5.88%
Cc1ccc(-c2nc(-c3cc4cccc(OCc5cccc(F)c5)c4oc3=O)no2)cc1 -14.1%
COc1cccc(NC(=O)c2sc3nc(C)c(C(=O)Nc4ccc(C)cc4C)c(-c4cccs4)c3c2N)c1 -22.3%
Cc1ccc2scc(N3CCN(c4cccc(C(F)(F)F)c4)CC3)c(=O)c2c1 -16%
COC(=O)CN1C(=O)C(C)(C)c2cc(S(=O)(=O)NCc3ccc(Cl)cc3)ccc21 -13.5%
CCCCN(CCCC)C1=C(C(=O)c2ccccc2)N(CC)S(=O)(=O)c2ccccc21 -37.6%
Cc1cc(C)cc(NC(=O)C2CCN(S(=O)(=O)c3c(C)noc3/C=C/c3ccco3)CC2)c1 -11%
Cc1ccn2c(Nc3c(C)cccc3C)c(-c3ccc(Cl)s3)nc2c1 -13.8%
COc1cc(CN(C(=O)COc2ccccc2Cl)c2ccccn2)cc(OC)c1OC -33.3%
CCn1c(C)c(C)c2cc(C(=O)N3CCN(c4cccc(C)c4C)CC3)ccc21 -9.8%
COc1cccc(-n2c(-c3ccco3)nc3c(cnn3-c3ccc(Cl)cc3)c2=O)c1 -5.67%
COc1cccc(N2C(=O)CSC23C(=O)N(CC(=O)Nc2cccc(Cl)c2)c2ccccc23)c1 (stereo unspecified) -18.3%
O=C(CSc1cn(CCNC(=O)c2ccccc2F)c2ccccc12)Nc1ccc(F)cc1 -10.2%
COc1ccc(C)cc1NC(=O)CSc1nc(=O)[nH]c2c1CCCC2 -23.8%
CCC(CC)C(=O)N1CCc2cc(OC)c(OC)cc2C1COc1ccc(C(=O)OC)cc1 (stereo unspecified) -21.9%
COc1ccc(CC(=O)Nc2cc(-c3nc4cccnc4s3)ccc2C)cc1 -3.46%
CN(C)S(=O)(=O)N(CC(=O)NCCSCc1cccc(Cl)c1)c1ccccc1 -14.5%
CCOC(=O)c1ccc(N2C(=O)c3n[nH]c(-c4cccs4)c3C2c2cccc(OC)c2)cc1 (stereo unspecified) -4.46%
O=S(=O)(c1ccc(Cl)cc1)c1nnn2c1nc(NCc1cccs1)c1sccc12 -8.06%
CCOc1ccc(-n2c(=O)c3c4c(sc3n(CC(=O)NC(C)CC)c2=O)CCC4)cc1 (stereo unspecified) -16.8%
CCC(=O)Nc1ccc2nc(SCc3ccccc3)sc2c1 -24.8%
CCc1ccc2oc(-c3cccc(NC(=O)C(C)(C)Oc4ccc(Br)cc4)c3)nc2c1 -5.18%
Cc1ccc(S(=O)(=O)c2nc(-c3ccc(F)cc3)oc2SCC(=O)c2ccccc2)cc1 -28.9%
Cc1ccc(Nc2c(-c3ccc(C)cc3)nc3ccc(C)cn23)cc1 -6.5%
